In the supplement of paper PMC6206098 one finds cell viability data, which are given here for 30 sequences.

± gives the uncertainty stated by the source. Shown are siRNA guide strands that differ only in the seed, positions 2 to 7.

The subject of one data set is M565. Description: cell viability relative to lipid-only control; higher = less toxic. The following applies: concentration: 10 nM; 96 h; Mus musculus.
The test system of the next data set is HeyA8. Described as above. The note with it: concentration: 10 nM; 96 h; Homo sapiens.
The test system of a further data set is H460. Described as above. The following applies: concentration: 10 nM; 96 h; Homo sapiens.
For the next data set, the system named is 3LL. As to the kind of experiment: cell viability relative to siNT1 control; HeyA8 human ovarian and H460 human lung cancer; M565 mouse liver and 3LL mouse lung cancer; siNT1 is a non-toxic control siRNA; higher = less toxic. The following applies: concentration: 10 nM; 96 h; Mus musculus.
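Throughout, for cell viability relative to lipid-only control: reverse lipid transfection in 384-well plates, in triplicate, of duplexes on a non-toxic 19mer backbone with passenger strand 2′-O-methylated at positions 1 and 2, luminescence viability read-out.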
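Throughout, for cell viability relative to siNT1 control: Luminescence-based viability of cells reverse transfected in 384-well plates with lipid-complexed siRNAs built on a non-toxic 19mer backbone whose passenger strand carries 2′-O-methyl groups at positions 1 and 2, triplicates.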

As to UGGAGCAACAUGUAAACCAAA, the cell viability (in general, a read-out of living cells in per cent, often relative to untreated cells) in the data set with M565 worked out at 6.15 ± 2.4%; in the data set with HeyA8, 20.4 ± 0.3%; with H460 it was 23.1 ± 1.3%; in the data set with 3LL, 13.8 ± 4.1%.
Turning to UCAUUACACAUGUAAACCAAA, the cell viability came out at 48 ± 14% with M565, 46.7 ± 2.2% with HeyA8, 33.4 ± 1.1% with H460 and 91.1 ± 13% with 3LL.
As for UUCCUUUACAUGUAAACCAAA, the cell viability in the data set with M565 worked out at 89.5 ± 20%; in the data set on HeyA8, 90.4 ± 8.2%; in the data set on H460 it was 58.3 ± 4%; in the data set on 3LL, 66 ± 27%.
In the same order, the values of UAGCGAGACAUGUAAACCAAA are 43.9 ± 3.1%, 83.4 ± 4.9%, 62.6 ± 1.4% and 95.5 ± 9.8%.
Consider UGAUGAGACAUGUAAACCAAA, for which the cell viability with M565 worked out at 24.3 ± 2.7%; in the data set on HeyA8 it was 65.8 ± 4%; in the data set on H460 it was 45.9 ± 3.9%; in the data set with 3LL, 78.1 ± 9.1%.
Regarding UAUUGAAACAUGUAAACCAAA, the cell viability was 81.2 ± 14% in the data set with M565, 88.2 ± 14% in the data set on HeyA8, 72.9 ± 4.8% with H460 and 95.8 ± 16% in the data set on 3LL.
As for UUGGAUGACAUGUAAACCAAA, the cell viability was found to be 54.4 ± 5.8% with M565, 61.9 ± 3.4% in the data set with HeyA8, 53.6 ± 8% with H460 and 81.9 ± 10% with 3LL.
In the same order, the values of UUCCUAGACAUGUAAACCAAA are 74.9 ± 9.5%, 91.2 ± 14%, 53.4 ± 7.3% and 22.5 ± 3.2%.
Turning to UGCCCCAACAUGUAAACCAAA, the cell viability turned out to be 24.7 ± 9.7% in the data set on M565, 67.9 ± 1.9% in the data set with HeyA8, 64.6 ± 4.5% in the data set on H460 and 54.9 ± 5.1% in the data set with 3LL.
The corresponding values for UGUUCGUACAUGUAAACCAAA are 66.8 ± 10%, 67 ± 8.2%, 81.4 ± 11% and 92.3 ± 7.3%.
In the same order, the values of UCCGUUGACAUGUAAACCAAA are 80.5 ± 18%, 82.4 ± 2.8%, 69.4 ± 5.2% and 94.7 ± 18%.
For the sequence UUCACUCACAUGUAAACCAAA, the cell viability stood at 77.1 ± 15% with M565, 73.3 ± 4.1% in the data set on HeyA8, 33.9 ± 5.7% in the data set on H460 and 29.1 ± 2.2% with 3LL.
The corresponding values for UAUCAGGACAUGUAAACCAAA are 74.3 ± 13%, 81.9 ± 3.1%, 63.7 ± 4% and 90.4 ± 5.3%.
UAAGUAUACAUGUAAACCAAA: the cell viability with M565 turned out to be 64.2 ± 2.4%; with HeyA8, 64.6 ± 11%; with H460, 57.6 ± 5.7%; in the data set on 3LL it was 81.6 ± 3%.
In the same order, the values of UCAGGAUACAUGUAAACCAAA are 23.1 ± 2.8%, 60.9 ± 4.4%, 44.2 ± 5.9% and 88.2 ± 18%.
In the same order, the values of UGGGAUCACAUGUAAACCAAA are 20.5 ± 2.3%, 2.8 ± 0.47%, 12.9 ± 2.8% and 26.5 ± 2.8%.
UUAGGCGACAUGUAAACCAAA: the cell viability is 38 ± 5.4% in the data set with M565, 94.56 ± 0.29% in the data set on HeyA8, 89.4 ± 14% in the data set on H460 and 80.3 ± 1.4% in the data set with 3LL.
Take UCAUAGGACAUGUAAACCAAA: the cell viability with M565 was determined as 11.9 ± 3.7%; in the data set with HeyA8, 46.2 ± 5.6%; in the data set on H460, 22.4 ± 1%; in the data set on 3LL, 47.4 ± 10%.
In the same order, the values of UCGAUUGACAUGUAAACCAAA are 63.4 ± 7%, 84.2 ± 3.4%, 70.6 ± 10% and 93.4 ± 17%.
As to UUGUCCCACAUGUAAACCAAA, the cell viability was determined as 5.61 ± 0.29% in the data set with M565, 20.2 ± 0.96% in the data set on HeyA8, 24.7 ± 3.9% with H460 and 16.8 ± 3.9% in the data set on 3LL.
The corresponding values for UUCGGUAACAUGUAAACCAAA are 87.9 ± 6.1%, 87.1 ± 12%, 75.8 ± 14% and 103 ± 14%.
Regarding UUGUUUUACAUGUAAACCAAA, the cell viability in the data set on M565 is 104 ± 6.2%; in the data set with HeyA8, 88.7 ± 1.7%; with H460, 67.9 ± 4.2%; in the data set on 3LL, 92.4 ± 11%.
On to UGAAGCAACAUGUAAACCAAA, for which the cell viability was 37.3 ± 2.2% with M565, 77.4 ± 2.7% in the data set on HeyA8, 60.1 ± 14% with H460 and 65.4 ± 8.6% in the data set with 3LL.
For UGUUGCGACAUGUAAACCAAA, the cell viability in the data set with M565 is 22.1 ± 2.5%; in the data set with HeyA8, 63 ± 5.9%; with H460 it was 94.6 ± 14%; with 3LL, 71.2 ± 8.6%.
With UCGAAUUACAUGUAAACCAAA, the cell viability in the data set with M565 amounted to 64.3 ± 9.6%; in the data set on HeyA8 it was 84.4 ± 2.4%; in the data set on H460, 66.9 ± 8.9%; in the data set with 3LL it was 91.7 ± 16%.
The corresponding values for UGCAUACACAUGUAAACCAAA are 80 ± 4.3%, 53.8 ± 6.8%, 48.2 ± 1.8% and 86.9 ± 6.6%.
The corresponding values for UCCGACGACAUGUAAACCAAA are 80.1 ± 14%, 82.7 ± 2.4%, 68.1 ± 5.9% and 111 ± 18%.
Regarding UAGAAUGACAUGUAAACCAAA, the cell viability in the data set with M565 was found to be 64.3 ± 4.7%; with HeyA8, 89.1 ± 12%; in the data set with H460 it was 94.6 ± 9.2%; in the data set with 3LL it was 82.7 ± 8.2%.
Take UAGCUGCACAUGUAAACCAAA: the cell viability came to 6.59 ± 1.2% in the data set with M565, 7.09 ± 1.3% in the data set with HeyA8, 37.7 ± 6.8% in the data set with H460 and 9.97 ± 2.4% with 3LL.
Turning to UUACGCGACAUGUAAACCAAA, the cell viability in the data set on M565 was 88.5 ± 3.4%; in the data set with HeyA8 it was 104.3 ± 1%; with H460 it was 93.2 ± 14%; with 3LL, 88.6 ± 4.7%.
